Measurements as given in publication PMC12136788.
The other results are listed elsewhere or left out.

B1: chr2:1632960:1633155:-|3pUTR|ENSG00000130508|msi1|FALSE|unique (ssRNA)
RNA: GGGAGUUCUACAGUCCGACGAUCGUCCAUUUUUUAGGUAUUAGAUAUGGCAGAAAAACCAUUUCCACUAUGCAAAGUUCUUUUAGACGUCAGUGAAAAUCAACUCUCAUACCUCAUGGUCUCUCUUUAAUUGACCAAAACCUUCAACAGAGGAUUGAGCAUCA
B2: chr12:96953524:96953626:+|3pUTR|ENSG00000139350|unk|total|mutant (ssRNA)
RNA: GGGAGUUCUACAGUCCGACGAUCCUUUUUUAAAAAAAUAAAUACACAUAAUGUAUAUUAAAAGAGGUGGGAUGAAAUAAUUUCCGUAAUUAUGUGUACAGAUGAAACAUUUUUGUCAUGGAAUUUAAAAGCUAAGUAAGUAUACAACAGAGGAUUGAGCAUCA
B3: chr5:96979339:96979440:+|CDS|ENSG00000113441|unk|FALSE|bound_elsewhere (ssRNA)
RNA: GGGAGUUCUACAGUCCGACGAUCGAGGAGGAUGAAGAGGAUUAUGAGUCAUCAGCAAAGCUGCUGGGCAUGUCCUUCAUGAAUAGAAGCUCAGGCCUUCGGAACAGUGCAACUGGUUACAGGCAGAGCCCAGAUGGGGCUUGUCAACAGAGGAUUGAGCAUCA
B4: chr17:79834786:79834887:-|CDS|ENSG00000141582|unk|FALSE|unique (ssRNA)
RNA: GGGAGUUCUACAGUCCGACGAUCAAUGAUGCCGGCCCCCAAAGAGGCUGUGACGGGCAACGGGAUUGGGGGCAAGAUGAAGAUAGUCAAGAACAAGAACAAGAACGGACGCAUCGUGAUCGUGAUGAGCAAAUACAUGGAGAACAACAGAGGAUUGAGCAUCA
B5: chr12:6965432:6965572:-|3pUTR|ENSG00000215021|unk|FALSE|unique (ssRNA)
RNA: GGGAGUUCUACAGUCCGACGAUCUGCGAUGGUCCCCCACACCGGUUCCCUGAACCCCUCUUGGAUUAAGGAAGACUGAAGACUAGCCCCUUUUCUGGGGAAUUACUUUCCUCCUCCCUGUGUUAACUGGGGCUGUUGGGGACACAACAGAGGAUUGAGCAUCA
B6: chr21:44330462:44330919:-|CDS|ENSG00000160226|control|control|control (ssRNA)
RNA: GGGAGUUCUACAGUCCGACGAUCUUCCCUCUCAGCCAGGGAUGCCUCGAGCAGCCACAGGGGCAGGGUGAGUGGCGGGCCGCUAGGGGCCGCGGCUGCCUCUGCCCACUGCACCCACUGCACAGAAACCGUGGGGAGGGAGCACAACAGAGGAUUGAGCAUCA
B7: chr13:47936490:47936773:-|three_prime_utr|ENSG00000136143|control|control|control (ssRNA)
RNA: GGGAGUUCUACAGUCCGACGAUCCAGAGAAGCAUCUUUUUAUUUGUUUUUGAUAUCCUUGUUUGAUGAAACCAGCAUCGUUUUAGAAAAAAUAUCUUUGUUUUAGUAAAAAUGACACAUACUCAUUGAAAAAAUAAACCCCUUCAACAGAGGAUUGAGCAUCA
B8: chrX:51682015:51682831:-|CDS|ENSG00000283093|control|control|control (ssRNA)
RNA: GGGAGUUCUACAGUCCGACGAUCCAGUGCCCCCGGGUCCAAGUCGGGGUCGGGAGCCACGCGGCGGCCAAGAGGUGGCUGGGUAGGUGGCGACGGAAGCGCCGCUGGCGGCGGGUCCGGAAGGCGGGCCCCAGAGACCUGCUGCAACAGAGGAUUGAGCAUCA
B9: chr1:19339193:19339294:-|3pUTR|ENSG00000077549|msi1|FALSE|unique (ssRNA)
RNA: GGGAGUUCUACAGUCCGACGAUCGAGACCGUGUGGUUUUUGUUCACCCGGGCCCCCCGUCUUCCUCCCUGUCCCCCCAUUUAUAGGCAUAAAAUCCACUGUCUGCCAGCCUCCCUUCCCUCCCACCUUUUUGGUACAUUGGUGCAACAGAGGAUUGAGCAUCA
B10: chr21:43758806:43758907:+|3pUTR|ENSG00000160209|msi1|FALSE|unique (ssRNA)
RNA: GGGAGUUCUACAGUCCGACGAUCACUUUCUUAAUCCAGUUUUUCAAACUUCUCCCUGUAGACCGUAAGGAUGAAUUCCACAAUAGGAUCCUUUUUAAAAUCGAUUUUAAAUUGUUGCCUAGUCCUGCCAAGGUUAUUAUGUGCCAACAGAGGAUUGAGCAUCA
B11: chr8:79641408:79641533:+|CDS|ENSG00000104435|unk|FALSE|unique (ssRNA)
RNA: GGGAGUUCUACAGUCCGACGAUCCCAGGCUUUUGAGCUGAUCUUGAAGCCACCAUCUCCUAUCUCAGAAGCCCCACGAACUUUAGCUUCUCCAAAGAAGAAAGACCUGUCCCUGGAGGAGAUCCAGAAGAAACUGGAGGCUGCCAACAGAGGAUUGAGCAUCA
B12: chr17:58089832:58089920:+|3pUTR|ENSG00000264364|msi1_unk|total|mutant (ssRNA)
RNA: GGGAGUUCUACAGUCCGACGAUCAUUCCACUGAACUGUGAUUCUAUGGCUUGGGGCGGAGGGUGGGGUGGGGAUGCCUUCUUCCGGGGCCCUGAGAUGUGUUUGUCUGUGGUGUGUGGGAGUGGGGAGCAGAUUUGUCUUGCUCAACAGAGGAUUGAGCAUCA
B13: chr5:78475949:78476050:+|3pUTR|ENSG00000085365|msi1|total|mutant (ssRNA)
RNA: GGGAGUUCUACAGUCCGACGAUCACCCACUGAAAAUUAAUAAUGGUACUUAUGAUUAAAAACGCAUUUAAUACUAACUGCAGCCGUUCUUUCAAGAAUCUUCCGAGAUAAGGAUUGCACAUUGGAAAAGUAAACCAUGUUUCACAACAGAGGAUUGAGCAUCA
B14: chr13:24434660:24434761:-|CDS|ENSG00000102699|unk|FALSE|unique (ssRNA)
RNA: GGGAGUUCUACAGUCCGACGAUCCCCUCUGCUUCCUCUCCUUUUCAUUUUCAACCUUCCGCAGCCUCUUUGACUGCCAACCUUAGGCUGCCAAUGGCCUCUGCUUUACCUGAGGCUCUUUGCAGUCAGUCCCGGACUACCCCACAACAGAGGAUUGAGCAUCA

Target: MSI1 full-length (mouse, UniProt Q61474 1-362)
Assay: nsRBNS (natural sequence RNA bind-n-seq); RBNS binding buffer (assumed for nsRBNS): 25 mM Tris pH 7.5, 150 mM KCl, 3 mM MgCl2, 0.01% Triton X-100, 500 ug/ml BSA, 20 U/ml SUPERase-In, 4 C; UNK is unkempt and MSI1 is Musashi-1; names of the RNAs are library labels; protein concentration not given here; high values mean tight binding

Sequence of UniProt Q61474 (Q61474 whole entry): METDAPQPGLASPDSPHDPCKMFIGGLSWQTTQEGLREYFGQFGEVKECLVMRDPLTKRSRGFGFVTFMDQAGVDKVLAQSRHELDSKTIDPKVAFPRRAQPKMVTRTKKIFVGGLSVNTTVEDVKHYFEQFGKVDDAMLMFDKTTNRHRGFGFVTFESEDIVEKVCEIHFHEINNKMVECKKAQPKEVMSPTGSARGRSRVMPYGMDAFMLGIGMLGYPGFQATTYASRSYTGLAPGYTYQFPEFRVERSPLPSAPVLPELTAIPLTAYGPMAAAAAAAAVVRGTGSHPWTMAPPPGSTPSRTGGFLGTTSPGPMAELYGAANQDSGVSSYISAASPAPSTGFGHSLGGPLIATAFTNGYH

Binder | binding signal
B1 | 2.36 enrichment R
B2 | 4.23 enrichment R
B3 | 0.426 enrichment R
B4 | 0.585 enrichment R
B5 | 0.424 enrichment R
B6 | 1.48 enrichment R
B7 | 4.22 enrichment R
B8 | 0.375 enrichment R
B9 | 1.08 enrichment R
B10 | 0.936 enrichment R
B11 | 0.458 enrichment R
B12 | 0.908 enrichment R
B13 | 0.81 enrichment R
B14 | 0.759 enrichment R
